Laboratory results as given in PubChem BioAssay (Tox21).
“And” between values parts separate entries of the source, which are not always exact repeats. Equal values may be shown once. Inconclusive results, whose numbers are uncertain, are shown with a selection of clear calls. Where the call is inconclusive, the potency comes from a doubtful curve fit. The source made the active and inactive calls. Unless noted, calls follow the shape of the dose curve; as a rule, active = well fitted cell-killing curve with a large enough effect in the repeat runs; inconclusive = weak or mixed curves, or effect the other way; inactive = no such curve, though single readings can be large or run the other way.

test system: not listed separately; experiment: qHTS assay to identify small molecule agonists of the farnesoid-X-receptor (FXR) signaling pathway - cell viability counter screen (AID 743218); settings: FXR-bla HEK293T viability, CellTiter-Glo luminescence, 16 h; viability change, negative = cytotoxic: at 62.6 µM (top of the series) unless noted; also: nearly all actives have a fitted effect of over 45% in size
How it was run: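 Cells were seeded, left 5 h at 37 C and 5% CO2, then dosed with compound in DMSO for 16 h. After the beta-lactamase FRET read, CellTiter-Glo was added and luminescence measured 30 min later.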
% is scaled to controls: 0 for no effect and ±100 for the full control effect; potency is read from the fitted curve at half-maximal effect; tags tell the direction and shape of the fitted curve or compound fluorescence and quenching.

Q: With [N-]=[N+]=[N-] as the compound, how does the Potency read?
A: inconclusive: 0.0133 µM [rising, full curve, poor fit]

Q: Which Potency does the source give for COP(=O)(OC)OC here?
A: inconclusive: 0.0088 µM [cytotoxic, full curve, poor fit]

Q: For Cc1ncc(CNC(=O)N(CCCl)N=O)c(N)n1, which Potency is on record?
A: inconclusive: 0.0211 µM [rising, full curve, poor fit]

Q: With CCOC(=S)S as the compound, how does the Potency read?
A: inconclusive: 0.0309 µM [rising, partial curve, poor fit]

Q: For C=C(C)C#N, which viability change, negative = cytotoxic is on record?
A: inconclusive: 15.4%

Q: For COc1cccc(C=O)c1, which “viability change, negative = cytotoxic” value is on record?
A: inactive: 4.22%

Q: With COP(N)(=O)SC (centres undefined) as the compound, how does the Potency read?
A: inactive

Q: For O=C1C[C@@H]2OCC=C3CN4CC[C@]56c7ccccc7N1[C@H]5[C@H]2[C@H]3C[C@H]46, which Potency is on record?
A: inconclusive: 13.4 µM [cytotoxic, partial curve, poor fit]

biological target: Bile acid receptor (Homo sapiens) (UniProt Q96RI1); experiment: qHTS assay to identify small molecule agonists of the farnesoid-X-receptor (FXR) signaling pathway (AID 743220; active = well fitted activation curve with a large enough effect in the signal ratio in the repeat runs, not every such curve was filed as active; inconclusive = weak or mixed curves, or effect the other way; the % refers to the signal ratio); settings: HEK293T FXR-UAS-bla, beta-lactamase FRET ratio, 16 h; activation: at 62.6 µM (top of the series) unless noted
Sequence of UniProt Q96RI1 (Q96RI1 whole entry, looked up): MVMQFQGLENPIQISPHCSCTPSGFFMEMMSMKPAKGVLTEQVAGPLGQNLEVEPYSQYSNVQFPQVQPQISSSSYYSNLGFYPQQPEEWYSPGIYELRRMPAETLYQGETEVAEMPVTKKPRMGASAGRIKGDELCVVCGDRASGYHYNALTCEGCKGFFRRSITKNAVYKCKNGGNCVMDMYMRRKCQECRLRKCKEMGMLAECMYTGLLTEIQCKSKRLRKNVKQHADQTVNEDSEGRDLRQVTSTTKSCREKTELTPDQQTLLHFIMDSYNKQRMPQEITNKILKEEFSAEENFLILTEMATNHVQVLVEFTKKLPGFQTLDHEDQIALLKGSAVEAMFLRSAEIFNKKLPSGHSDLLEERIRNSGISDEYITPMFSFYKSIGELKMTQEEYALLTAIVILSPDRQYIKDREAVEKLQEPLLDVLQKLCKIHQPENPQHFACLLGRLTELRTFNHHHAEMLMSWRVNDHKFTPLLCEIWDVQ
How it was run: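 FXR-UAS-bla HEK 293T cells carrying a UAS-driven beta-lactamase reporter were plated for 5 h at 37C/5% CO2, then exposed to DMSO-dissolved Tox21 10K compounds for 16 h at 37C. A LiveBLAzer B/G FRET substrate was loaded for 2 h at room temperature before fluorescence reading.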

Q: With COP(=O)(OC)OC as the compound, how does the Potency read?
A: inconclusive: 21.9 µM [activator, single point]

Q: For Nc1ccccc1Cl, which “activation” value is on record?
A: inactive: 0.782%

Q: With O=C(O)CCCCCCNC1c2ccccc2CCc2ccccc21 as the compound, how does the “activation” value read?
A: inactive: 0.688%

Q: Which Potency does the source give for Cc1ncc(CNC(=O)N(CCCl)N=O)c(N)n1 here?
A: inconclusive: 13.3 µM [cytotoxic, single point]

Q: For CCOC(=S)S, which Potency is on record?
A: inconclusive: 17.4 µM [activator, full curve] and inconclusive: 18.5 µM [activator, full curve]

Q: For O=[N+]([O-])c1ccccc1CCl, which “activation” value is on record?
A: inactive: -1.35% [at 81.1 µM]

Q: With CCc1ccc(C(=O)NN(C(=O)c2cc(C)cc(C)c2)C(C)(C)C)cc1 as the compound, how does the Potency read?
A: inconclusive: 24.5 µM [activator, partial curve]

Q: For CCCCP(CCCC)CCCC, which Potency is on record?
A: inconclusive: 0.616 µM [rising, partial curve, poor fit]

test system: not listed separately; experiment: qHTS assay to identify small molecule antagonists of the farnesoid-X-receptor (FXR) signaling pathway - cell viability counter screen (AID 743221; active = well fitted cell-killing curve with a large enough effect in the repeat runs, not every such curve was filed as active; inconclusive = weak or mixed curves, or effect the other way; inactive = no such curve, though single readings can be large or run the other way; also: nearly all actives have a fitted effect of over 50% in size); settings: FXR-bla HEK293T viability, CellTiter-Glo luminescence, 16 h; activity change, negative = cytotoxicity: at 62.6 µM (top of the series) unless noted
How it was run: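 Here viability was scored by luminescence after CellTiter-Glo addition to wells already read for beta-lactamase. Prior treatment: compound plus CDCA (50 uM final), 16 h, 37 C, HEK 293T FXR-bla cells.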

Q: With CCC[N+]1(C)CCCC1 as the compound, how does the Potency read?
A: inconclusive: 24.5 µM [falling, single point]

Q: With [N-]=[N+]=[N-] as the compound, how does the Potency read?
A: inactive

Q: Which “activity change, negative = cytotoxicity” value does the source give for CC(Cc1ccc(OCC(=O)O)cc1)NCC(O)c1csc(C(F)(F)F)n1 (centres undefined) here?
A: inactive: 6.64%

Q: For CCOCN(C(=O)CCl)c1c(C)cccc1CC, which Potency is on record?
A: inconclusive: 49 µM [falling, partial curve]

Q: Which Potency does the source give for O=S(=O)(Cl)Cl here?
A: inconclusive: 18.8 µM

biological target: Vitamin D3 receptor (Homo sapiens) (UniProt P11473); experiment: qHTS assay to identify small molecule agonists of the vitamin D receptor (VDR) signaling pathway (AID 743222; calls by dose curve); settings: HEK293T VDR-UAS-bla, beta-lactamase FRET ratio, 16 h; activation: at 63.5 µM (top of the series) unless noted
Sequence of UniProt P11473 (P11473 whole entry, looked up): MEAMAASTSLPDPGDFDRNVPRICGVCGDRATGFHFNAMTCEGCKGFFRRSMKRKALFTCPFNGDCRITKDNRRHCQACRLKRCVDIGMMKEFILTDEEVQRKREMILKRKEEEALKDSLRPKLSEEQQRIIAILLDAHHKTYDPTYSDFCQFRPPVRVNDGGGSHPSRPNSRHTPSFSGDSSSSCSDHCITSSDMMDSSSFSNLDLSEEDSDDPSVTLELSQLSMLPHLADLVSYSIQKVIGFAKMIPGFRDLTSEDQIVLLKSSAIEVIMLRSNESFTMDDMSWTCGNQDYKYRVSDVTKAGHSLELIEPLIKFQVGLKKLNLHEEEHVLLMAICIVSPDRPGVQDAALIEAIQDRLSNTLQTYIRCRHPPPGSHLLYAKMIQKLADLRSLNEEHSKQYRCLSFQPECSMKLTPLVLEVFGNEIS
How it was run: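 Cells carrying a VDR-driven beta-lactamase reporter are seeded at 2,000 per well and rested 4 h. Compounds in DMSO are added for 16 h at 37C, and FRET substrate fluorescence is measured after 2 h at room temperature.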

Q: Which activation does the source give for CCC(C)Nc1c([N+](=O)[O-])cc(C(C)(C)C)cc1[N+](=O)[O-] (centres undefined) here?
A: inconclusive: -35.2%

Q: Which Potency does the source give for Cc1c(Cl)c(=O)oc2cc(OP(=O)(OCCCl)OCCCl)ccc12 here?
A: inconclusive: 29.8 µM [fluorescent, partial curve, poor fit]

Q: With O=C(O)C(Br)(Br)Br as the compound, how does the “activation” value read?
A: inactive: 2.56%
